Assay results as given in PubChem BioAssay AID1745845 (National Center for Advancing Translational Sciences (NCATS), 2022).
The campaign covered roughly 360,000 compounds. About 2,600 (0.72%) were called active. The shares of active, inactive and inconclusive entries below differ from those in the screen. The call rests on the fitted dose curve; in most records, active means well fitted inhibition curve with a large enough effect; inconclusive means small, poorly fitted or top-dose-only effect; inactive means no such curve, though single readings can be large or run the other way. Potencies beside an inconclusive call are fits to weak or partial responses and may not hold up.

Test: Primary qHTS for Inhibitors of ATXN expression; further: nearly all actives have a fitted effect of over 55% in size
Conditions: HEK-293 ATXN2-luciferase reporter, luminescence, 24 h; activity change, negative = inhibition: at 57 µM (top of the series)
Outline: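 ATXN2-luciferase reporter cells (luciferase flanked by upstream and downstream ATXN2 gene portions) were treated 24 h at 37 °C with compounds at up to 57 uM. SteadyGlo luminescence gave expression; GF-AFC fluorescence gave viability.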
On the % scale 0 is the no-effect control and ±100 the full control effect; potency means the concentration at half of the fitted maximal effect; tags describe the fitted curve by direction and shape.

| Structure (SMILES) | activity change, negative = inhibition | Potency |
| --- | --- | --- |
| CC(=O)Nc1c(C(=O)NCc2ccccc2)nnn1Cc1ccccc1 | inactive: 6.54% |  |
| Cc1cc(/C=N/n2cnnc2)c(C)n1-c1ccc(OCc2ccc(Cl)cc2Cl)cc1 |  | active: 15.8 µM |
| CC(O)CN1CCN(C(=O)CN2C(=O)NC(c3ccccc3)(c3ccccc3)C2=O)CC1 (stereo unspecified) |  | inconclusive: 3.36 µM [inhibitor, partial curve, poor fit] |
| Cn1c(SCC(=O)NC2CC2)nnc1-c1cccs1 | inactive: -0.766% |  |
| O=C(NCc1cccc(Br)c1)c1cccn1-c1nnc(N2CCCCC2)s1 |  | inconclusive: 17.8 µM [inhibitor, partial curve] |
| COc1ccc2c(c1)CC[C@@H](CN(C)CC(=O)O)[C@H]2c1ccccc1 |  | inconclusive: 3.43 µM [inhibitor, partial curve, poor fit] |
| CCOC(=O)c1c(C)[nH]c(C(=O)CSc2nnnn2-c2ccccc2)c1C |  | inconclusive: 0.631 µM [inhibitor, full curve] |
| Cn1nnnc1N=N/C(=N/Nc1ccccc1)c1ccccc1 |  | active: 2.51 µM |
| Cc1ccc(Cl)cc1N1CCN(C(=O)Cn2cnc3nc4c(cc3c2=O)CCCC4)CC1 |  | inconclusive: 35.5 µM [inhibitor, single point] |
| COCc1nc2c([nH]1)c(=O)n(C)c(=O)n2CC(C)C | inactive: 0.215% |  |
| CN(C)c1cccc(C(=O)N/C=C/n2cnc3cc(C(F)(F)F)ccc32)c1 | inactive: -7.13% |  |
| CCC(=C(c1ccccc1)c1ccc(OCCN(C)C)cc1)c1ccccc1 |  | inconclusive: 43.2 µM [inhibitor, single point] |
| CC1(C(=O)Nc2cccc3ncccc23)CCN1C(=O)Cc1ccc(-c2ccccc2)cc1 (stereo unspecified) |  | inconclusive: 39.8 µM [inhibitor, single point] |
| COc1cc(/C=N/Nc2ccc(C(=O)O)cc2)ccc1O |  | inconclusive: 39.8 µM [inhibitor, single point] |
| O=C(CCN1C(=O)COc2ccccc21)NCCN1CCN(c2cccc(Cl)c2)CC1 |  | inconclusive: 10 µM [inhibitor, partial curve, poor fit] |
| Cc1ccc(S(=O)(=O)N2CCC(C(=O)Nc3ncccc3O)CC2)cc1 | inactive: -12.1% |  |
| CCc1cccc2c1NC(=O)C21N2CCCC2C(C(=O)c2ccc3ccccc3c2)C12C(=O)Nc1ccccc12 (stereo unspecified) | inactive: 7.33% |  |
| O=C(CC(c1ccccc1)c1cc(Br)ccc1O)NCC1(c2ccccc2)CCCC1 (stereo unspecified) |  | inconclusive: 35.5 µM [inhibitor, single point] |
| CC(C)Cc1nc(N2CCN(C(=O)c3ccccc3)CC2)c(C#N)c2c1CCC2 | inactive: -19.2% |  |
| COc1ccccc1Nc1ncnc2c1c(C)c(C)n2CCCN(C)C |  | inconclusive: 22.4 µM [inhibitor, partial curve, poor fit] |
| O=C(NNC1=Nc2cccc3cccc1c23)c1ccccc1Br |  | inconclusive: 11.2 µM [inhibitor, partial curve, poor fit] |
| COc1ccc(C[C@H](N)C(=O)N[C@H]2[C@@H](O)[C@H](n3cnc4c(N(C)C)ncnc43)O[C@@H]2CO)cc1 |  | active: 0.398 µM |

| Structure (SMILES) | activity change, negative = inhibition | Potency |
| --- | --- | --- |
| [O-][n+]1cccc(CO)c1 | inactive: -0.37% |  |
| COc1ccc(-c2noc(N3CCC(C(=O)Nc4ccccc4OC)CC3)n2)cc1 |  | inconclusive: 20 µM [inhibitor, single point] |
| CSc1ccc(CCNC(=O)C(C)n2c(C)c3cnn(-c4ccccc4)c(=O)c3c2C)cc1 (stereo unspecified) | inactive: -20.2% |  |
| COC(=O)c1cc(-c2c(-c3ccc4c(c3)OCO4)noc2-c2ccsc2)cc([N+](=O)[O-])c1 | inactive: 3.83% |  |
| Oc1ccc(/C=N/Nc2nccnc2Cl)c(O)c1 |  | inconclusive: 7.08 µM [inhibitor, full curve] |
| CCOc1ccc(OCC)c(S(=O)(=O)NC2CC(C)(C)NC(C)(C)C2)c1 | inactive: -26.4% |  |
| Cc1cc(NC(=O)CSc2nc3ccccc3c(=O)n2Cc2ccc(F)cc2)no1 | inactive: -29.9% |  |
| O=C(NC(CO)(CO)CO)c1coc(=O)c(Br)c1 | inactive: -9.18% |  |
| COc1ccc(C(=O)N/N=C(\c2ccccc2)c2ccccn2)cc1 |  | active: 3.16 µM |
| CC(=O)Oc1c(Br)cc(N(C(C)=O)S(=O)(=O)c2ccccc2)c2ccccc12 |  | inconclusive: 39.8 µM [inhibitor, partial curve, poor fit] |
| Cc1ccc(NC(=O)c2ccc([N+](=O)[O-])s2)cc1S(=O)(=O)N1CCOCC1 |  | inconclusive: 8.91 µM [inhibitor, partial curve, poor fit] |
| Cc1cc(O)c(C(C)C)cc1C1(c2cc(C(C)C)c(O)cc2C)OC(=O)c2ccccc21 |  | inconclusive: 3.16 µM [inhibitor, single point] |
| O=C(Nc1cccc(S(=O)(=O)N2CCOCC2)c1)c1cc(=O)[nH]c2ccccc12 | inactive: 4.5% |  |
| Cc1cc2ncn(/N=C/c3ccc([N+](=O)[O-])o3)c2cc1C |  | inconclusive: 2.24 µM [inhibitor, partial curve, poor fit] |
| Cn1c(N2CCN(C(c3ccccc3)c3ccccc3)CC2)nc2ccccc21 |  | inconclusive: 31.6 µM [inhibitor, single point] |
| COc1cccc(NC(=S)N(CCc2c(C)[nH]c3ccc(C)cc23)Cc2cccs2)c1 |  | inconclusive: 35.5 µM [inhibitor, single point] |
| Cc1ccc(NC(=O)CCC(=O)N2Cc3ccccc3Oc3ncccc32)cc1 | inactive: 0.671% |  |
| CC(C)N(C(=O)COC(=O)c1ccccc1C(=O)c1ccc(Cl)c([N+](=O)[O-])c1)C(C)C |  | inconclusive: 37.7 µM [inhibitor, single point] |
| COc1ccc(-c2nc(NC(=O)c3ccc(OCC(=O)Nc4ccc(F)cc4)c(OC)c3)sc2C)cc1 |  | inconclusive: 12.6 µM [inhibitor, partial curve, poor fit] |
| O=C(Nc1ccc(SC(F)F)cc1)c1cccc2nc3ccccc3nc12 |  | inconclusive: 17.8 µM [inhibitor, partial curve] |
| O=C(Nc1ccc(Br)cn1)c1cccc2c1-c1ccccc1C2=O |  | inconclusive: 4.74 µM [inhibitor, full curve, poor fit] |
| COc1ccccc1C(=O)NCC(=O)Nc1ccccc1 | inactive: 5.36% |  |

| Structure (SMILES) | activity change, negative = inhibition | Potency |
| --- | --- | --- |
| COc1ccc(OC)c(CN2C(=O)c3ccccc3C2c2nnnn2-c2c(C)cccc2C)c1 (stereo unspecified) | inactive: 5.31% |  |
| CCNS(=O)(=O)c1ccc(C(=O)OCC(=O)N2CCCc3ccccc32)cc1 | inactive: 5.66% |  |
| CCOC(=O)C1(Cc2ccccc2)NC(c2ccccc2F)C2C(=O)N(CC)C(=O)C21 (stereo unspecified) |  | inconclusive: 0.126 µM [inhibitor, full curve, poor fit] |
| CC[C@]12c3[nH]c4cc(-c5ccco5)ccc4c3CCN1C(=O)[C@@H](CC(=O)NCc1cccc(C(F)(F)F)c1)C[C@@H]2C(=O)N1CCN(C(=O)c2ccco2)CC1 |  | inconclusive: 39.8 µM [inhibitor, single point] |
| Cc1ccccc1-c1n[nH]c(=S)n1C |  | inconclusive: 0.0067 µM [inhibitor, full curve, poor fit] |
| CCc1nc2c(OCc3ccc(C(F)(F)F)cc3)cccn2c1N(C)C(=O)C(C)C |  | inconclusive: 22.4 µM [inhibitor, single point] |
| Cc1ccc(SCCNC(=O)c2ccc([N+](=O)[O-])c(C)c2)cc1 | inactive: -3.3% |  |
| COc1ccc2cc3cc(C(=O)NCCc4ccc(OC)c(OC)c4)oc3nc2c1 |  | inconclusive: 22.4 µM [inhibitor, partial curve, poor fit] |
| Cc1coc2cc3oc(=O)c(CC(=O)N4C[C@H]5C[C@@H](C4)c4cccc(=O)n4C5)c(C)c3cc12 | inactive: -3.32% |  |
| CCOc1cc(/C=N/NS(=O)(=O)c2ccccc2)ccc1OS(=O)(=O)c1ccc(C)cc1 | inactive: -13.2% |  |
| Cc1cccc(NC(=O)CCn2nc(-c3ccccc3)c3ccccc3c2=O)c1 |  | inconclusive: 28.2 µM [inhibitor, single point] |
| Cc1ccc(-c2nc3cc(Br)cnc3nc2-c2ccc(C)cc2)cc1 |  | inconclusive: 37.7 µM [inhibitor, single point] |
| NS(=O)(=O)c1ccc(CCNCc2ccccc2OCc2ccc(Cl)cc2)cc1 |  | inconclusive: 11.2 µM [inhibitor, partial curve, poor fit] |
| Cc1ccc(-c2nn(-c3ccccc3)c3[nH]c(=O)c(CNCc4ccccc4)cc23)cc1 |  | inconclusive: 39.8 µM [inhibitor, single point] |
| C=CCc1c(C)nc(SC)nc1Nc1ccc(C)cc1 |  | inconclusive: 28.2 µM [inhibitor, single point] |
| CC1CC(C)CN(S(=O)(=O)c2ccc(C(=O)NCCCn3ccnc3)cc2)C1 (stereo unspecified) |  | inconclusive: 2.82 µM [inhibitor, full curve, poor fit] |
| O=[N+]([O-])c1cc(S(=O)(=O)C(F)(F)F)ccc1Sc1nc2ccccc2s1 |  | inconclusive: 39.8 µM [inhibitor, single point] |
| O=C1C(C2=C(O)c3ccccc3C2=O)=Nc2ccccc21 |  | inconclusive: 2.82 µM [inhibitor, partial curve, poor fit] |
| N#CCCN(Cc1cccnc1)S(=O)(=O)c1ccc(S(=O)(=O)N2CCCCCC2)cc1 | inactive: -7.17% |  |
| Cc1ccc2c(CC(=O)N3CCN(c4ccccc4)CC3)coc2c1 |  | inconclusive: 23.8 µM [inhibitor, single point] |
| O=S(=O)(c1ccc2nc(COc3ccc(Cl)cc3Cl)[nH]c2c1)N1CCOCC1 |  | inconclusive: 39.8 µM [inhibitor, single point] |
| CCN1CCN(C(=O)c2ccc3c(c2)N(Cc2cccc(F)c2)C(=O)c2ccccc2S3)CC1 |  | inconclusive: 20 µM [inhibitor, single point] |
